Data taken from patent US11618753B2 (priority 2018, dated 2023).

The compounds below were run on MLKL phosphorylation, HT29-L23 human colorectal adenocarcinoma cells (assay: cells). Conditions: read-out: pMLKL HCS Cell Assay (IC50, uM).

SMILES | IC50 [µM]
Nc1ncnn2c(-c3cccc(C(=O)N[C@H]4CCCN(Cc5ccccc5)C4)c3)cc(C(F)(F)F)c12 [Example 80, 3-[4-amino-5-(trifluoromethyl)pyrrolo[2,1-f][1,2,4]triazin-7-yl]-N-[(3S)-1-benzylpiperidin-3-yl]benzamide] | 0.261
Nc1ncnn2c(-c3cccc(C(=O)N4CCC[C@H](Cc5ccc(F)cc5)C4)c3)cc(C(F)(F)F)c12 [Example 81, 7-{3-[(3R)-3-[(4-fluorophenyl)methyl)piperidine-1-carbonyl]phenyl}-5-(trifluoromethyl)pyrrolo[2,1-f][1,2,4]triazin-4-amine] | 0.038
Nc1ncnn2c(-c3cccc(C(=O)N4CCC[C@@H](Cc5ccc(F)cc5)C4)c3)cc(C(F)(F)F)c12 [Example 82, 7-{3-[(3S)-3-[(4-fluorophenyl)methyl]piperidine-1-carbonyl]phenyl}-5-(trifluoromethyl)pyrrolo[2,1-f][1,2,4]triazin-4-amine] | 0.045
Nc1ncnn2c(-c3cccc(C(=O)N[C@@H]4CN(C(=O)C5(O)CCCC5)C[C@@H]4F)c3)cc(C(F)(F)F)c12 [Example 84, 3-[4-amino-5-(trifluoromethyl)pyrrolo[2,1-f][1,2,4]triazin-7-yl]-N-[(3R,4S)-4-fluoro-1-(1-hydroxycyclopentanecarbonyl)pyrrolidin-3-yl]benzamide] | 0.07
Nc1ncnn2c(-c3cccc(C(=O)N[C@@H]4CN(C(=O)[C@@H](O)C(F)(F)F)C[C@@H]4F)c3)cc(C(F)(F)F)c12 [Example 85, 3-[4-amino-5-(trifluoromethyl)pyrrolo[2,1-f][1,2,4]triazin-7-yl]-N-[(3R,4S)-4-fluoro-1-[(2R)-3,3,3-trifluoro-2-hydroxypropanoyl]pyrrolidin-3-yl]benzamide] | 0.363
Nc1ncnn2c(-c3cccc(C(=O)N[C@@H]4CN(C(=O)c5ccc(F)c(F)c5)C[C@@H]4F)c3)cc(C(F)(F)F)c12 [Example 86, 3-[4-amino-5-(trifluoromethyl)pyrrolo[2,1-f][1,2,4]triazin-7-yl]-N-[(3R,4S)-1-(3,4-difluorobenzoyl)-4-fluoropyrrolidin-3-yl]benzamide] | 0.033
CC(C)(O)C(=O)N1C[C@H](F)[C@H](NC(=O)c2cccc(-c3cc(C(F)(F)F)c4c(N)ncnn34)c2)C1 [Example 87, 3-[4-amino-5-(trifluoromethyl)pyrrolo[2,1-f][1,2,4]triazin-7-yl]-N-[(3R,4S)-4-fluoro-1-(2-hydroxy-2-methylpropanoyl)pyrrolidin-3-yl)benzamide] | 0.245
CC(C)(CF)C(=O)N1C[C@H](F)[C@H](NC(=O)c2cccc(-c3cc(C(F)(F)F)c4c(N)ncnn34)c2)C1 [Example 88, 3-[4-amino-5-(trifluoromethyl)pyrrolo[2,1-f][1,2,4]triazin-7-yl]-N-[(3R,4S)-4-fluoro-1-(3-fluoro-2,2-dimethylpropanoyl)pyrrolidin-3-yl]benzamide] | 0.117
CC(C)C(=O)N1C[C@H](F)[C@H](NC(=O)c2cccc(-c3cc(C(F)(F)F)c4c(N)ncnn34)c2)C1 [Example 89, 3-[4-amino-5-(trifluoromethyl)pyrrolo[2,1-f][1,2,4]triazin-7-yl]-N-[(3R,4S)-4-fluoro-1-(2-methylpropanoyl)pyrrolidin-3-yl]benzamide] | 0.087
CC(C)(C)CC(=O)N1C[C@H](F)[C@H](NC(=O)c2cccc(-c3cc(C(F)(F)F)c4c(N)ncnn34)c2)C1 [Example 90, 3-[4-amino-5-(trifluoromethyl)pyrrolo[2,1-f][1,2,4]triazin-7-yl]-N-[(3R,4S)-1-(3,3-dimethylbutanoyl)-4-fluoropyrrolidin-3-yl]benzamide] | 0.013
Nc1ncnn2c(-c3cccc(C(=O)N[C@@H]4CN(C(=O)c5ccccc5F)C[C@@H]4F)c3)cc(C(F)(F)F)c12 [Example 91, 3-[4-amino-5-(trifluoromethyl)pyrrolo[2,1-f][1,2,4]triazin-7-yl]-N-[(3R,4S)-4-fluoro-1-(2-fluorobenzoyl)pyrrolidin-3-yl]benzamide] | 0.009
